Reference: PubChem BioAssay AID686979 (National Center for Advancing Translational Sciences (NCATS), 2013)
Screen size: about 420,000 compounds; about 50,000 (12%) were called active. The inconclusive results got no clear call from the source; some entries with a clear call stand among them for comparison. Calls follow the shape of the dose curve; as a rule, active = well fitted inhibition curve with a large enough effect; inconclusive = small, poorly fitted or top-dose-only effect; inactive = flat fitted curve, though single readings scatter. Potencies of inconclusive entries are left out as doubtful fits.

Assay: qHTS for Inhibitors of human tyrosyl-DNA phosphodiesterase 1 (TDP1): qHTS in cells in presence of CPT; also: nearly all actives have a fitted effect of over 55% in size
Settings: chicken DT40 Tdp1-/-;hTDP1 cells + 20 nM CPT, ATP luminescence, 48 h; series mostly up to 46.2 µM
Method in brief: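 Chicken DT40 Tdp1-/- cells complemented with human TDP1, 400 cells/well, exposed to compounds plus 20 nM camptothecin for at least 48 h at 37 C; viability read as ATP content by CellTiter-Glo luminescence.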
Potency is read from the fitted curve at half-maximal effect; tags tell the direction and shape of the fitted curve.

| Compound | Potency |
| --- | --- |
| CC1CN(C(=O)CCC(=O)N2CCOCC2)c2ccccc2O1 (stereo unspecified) | inactive |
| CN(c1ccccc1)S(=O)(=O)c1cccc(C(=O)Nc2ncn[nH]2)c1 | inactive |
| Cc1ccc(S(=O)(=O)N2CCC(=O)N(CCOCc3ccc(F)cc3)CC2)cc1 | inconclusive [inhibitor, single point] |
| COCCCNC(=O)C[C@@H]1C[C@@]2(C(=O)OC)CCCCC=C2N(Cc2ccc3c(c2)OCO3)C1=O | inconclusive [inhibitor, partial curve] |
| COc1cc2c(cc1OC)C(C)N(CCc1ccc(Cl)cc1)CC2 (stereo unspecified) | inconclusive [inhibitor, partial curve] |
| NNC(=O)c1ccc(Oc2cc(Cl)cc(Cl)c2)o1 | inconclusive [inhibitor, partial curve, poor fit] |
| COC(=O)c1c(NC(=O)CSc2nnnn2-c2ccccc2)sc2c1CCCC2 | inconclusive [inhibitor, single point] |
| CCOC(=O)C1CCCN(C(=O)CCc2nc3sc4c(c3c(=O)[nH]2)CCCC4)C1 (stereo unspecified) | inconclusive [inhibitor, partial curve] |
| O=CC(=O)c1ccc(Br)cc1 | inconclusive [inhibitor, single point] |
| Cc1ccc(OCC(=O)NCC2(N3CCOCC3)CCCCC2)cc1C | active: 20.6 µM |
| CC(=O)Oc1cc2c(cc1Cl)C1(CC(c3ccccc3Cl)O2)CC(C)(C)NC(=S)N1 (stereo unspecified) | active: 3.26 µM |
| CCOC(=O)C1CCN(C(=O)c2cccc(S(=O)(=O)N(CC)c3ccccc3)c2)CC1 | active: 14.6 µM |
| CCOc1ccc(NS(=O)(=O)c2ccc(-c3cnc(C4CC4)o3)cc2)cc1 | inconclusive [inhibitor, single point] |
| CCOC(=O)c1cccc(NC(=O)CCc2c(C)nn(-c3ccc(N4CCCC4)nn3)c2C)c1 | inconclusive [inhibitor, single point] |
| COc1cccc(-c2nnc(Nc3nc4c(F)cccc4s3)o2)c1 | active: 20.6 µM |
| Cc1ccc(OCC(=O)Nc2ccc(Cl)cc2)c(-n2nc3ccccc3n2)c1 | inactive |
| COc1ccc(C(=O)Nc2cc(C)on2)cc1[N+](=O)[O-] | inactive |
| c1ccc(CNc2ncnc3sccc23)cc1 | active: 8.2 µM |
| COc1ccc(NCC(=O)NN=C2CCS(=O)(=O)c3ccc(F)cc32)cc1 | inconclusive [inhibitor, single point] |
| O=C(Cc1cccs1)NCc1cc(Cl)cc(Cl)c1 | inactive |
| COc1ccccc1C(O)c1ncc(-c2cccc3ccccc23)[nH]1 (stereo unspecified) | inconclusive [inhibitor, single point] |
